Target: IN-box^Arg847Ala, point mutant in the context of the [Aurora B/IN-box] complex (X. laevis, UniProt O13024 790-856, IN-box^Arg847Ala)
Assay: cell-based or functional assay

- kcat (s^–1) of [Aurora B/IN-box^Arg847Ala], pyruvate kinase/lactate dehydrogenase-coupled kinase assay: 16 s^–1
- kcat/KM (M^–1 s^–1) of [Aurora B/IN-box^Arg847Ala], pyruvate kinase/lactate dehydrogenase-coupled kinase assay: 19000 M^–1 s^–1
B1: Aurora B ([…] aa) from X. laevis, phosphorylated at Thr248, as in [Aurora B/IN-box]^all-P (domain or fragment)
chain: not shown
modifications: phosphothreonine at 248

From publication PMC10259393, “The structural basis of the multi-step allosteric activation of Aurora B kinase” (eLife, 2023)
